# Source: PubChem BioAssay AID504333 (National Center for Advancing Translational Sciences (NCATS), 2011)
# Several values for one entry are separate records, joined by “and”; a condition that tells them apart may be missing. Identical values can stand only once. Screen size: about 360,000 compounds; about 16,000 (4.4%) were called active. This list was built around the results that the source calls inconclusive (neither active nor inactive); the mix of calls is not that of the screen. The call rests on the fitted dose curve; in most records, active means well fitted inhibition curve with a large enough effect; inconclusive means small, poorly fitted or top-dose-only effect; inactive means no such curve, though single readings can be large or run the other way. A potency beside an inconclusive call is a rough fit, not a confirmed value.
# Biological target: Bromodomain adjacent to zinc finger domain protein 2B (Homo sapiens) (UniProt Q9UIF8)
# Assay: qHTS Assay for Inhibitors of BAZ2B; further: nearly all actives have a fitted effect of over 60% in size
# Conditions: AlphaScreen BAZ2B-H3K14Ac peptide displacement; series mostly up to 114 µM
# Procedure, shortened: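 Inhibition is scored as reduced AlphaScreen emission. The BAZ2B/b-H3(5-23)K14Ac complex (50 nM each) in PBS pH 7.4, 0.01% Tween-20 meets compound (up to 110 uM) for 30 min at RT before bead addition.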
# Potency means the concentration at half of the fitted maximal effect; tags describe the fitted curve by direction and shape.
# Sequence of UniProt Q9UIF8 (Q9UIF8 whole entry, looked up, the tested form may be a part): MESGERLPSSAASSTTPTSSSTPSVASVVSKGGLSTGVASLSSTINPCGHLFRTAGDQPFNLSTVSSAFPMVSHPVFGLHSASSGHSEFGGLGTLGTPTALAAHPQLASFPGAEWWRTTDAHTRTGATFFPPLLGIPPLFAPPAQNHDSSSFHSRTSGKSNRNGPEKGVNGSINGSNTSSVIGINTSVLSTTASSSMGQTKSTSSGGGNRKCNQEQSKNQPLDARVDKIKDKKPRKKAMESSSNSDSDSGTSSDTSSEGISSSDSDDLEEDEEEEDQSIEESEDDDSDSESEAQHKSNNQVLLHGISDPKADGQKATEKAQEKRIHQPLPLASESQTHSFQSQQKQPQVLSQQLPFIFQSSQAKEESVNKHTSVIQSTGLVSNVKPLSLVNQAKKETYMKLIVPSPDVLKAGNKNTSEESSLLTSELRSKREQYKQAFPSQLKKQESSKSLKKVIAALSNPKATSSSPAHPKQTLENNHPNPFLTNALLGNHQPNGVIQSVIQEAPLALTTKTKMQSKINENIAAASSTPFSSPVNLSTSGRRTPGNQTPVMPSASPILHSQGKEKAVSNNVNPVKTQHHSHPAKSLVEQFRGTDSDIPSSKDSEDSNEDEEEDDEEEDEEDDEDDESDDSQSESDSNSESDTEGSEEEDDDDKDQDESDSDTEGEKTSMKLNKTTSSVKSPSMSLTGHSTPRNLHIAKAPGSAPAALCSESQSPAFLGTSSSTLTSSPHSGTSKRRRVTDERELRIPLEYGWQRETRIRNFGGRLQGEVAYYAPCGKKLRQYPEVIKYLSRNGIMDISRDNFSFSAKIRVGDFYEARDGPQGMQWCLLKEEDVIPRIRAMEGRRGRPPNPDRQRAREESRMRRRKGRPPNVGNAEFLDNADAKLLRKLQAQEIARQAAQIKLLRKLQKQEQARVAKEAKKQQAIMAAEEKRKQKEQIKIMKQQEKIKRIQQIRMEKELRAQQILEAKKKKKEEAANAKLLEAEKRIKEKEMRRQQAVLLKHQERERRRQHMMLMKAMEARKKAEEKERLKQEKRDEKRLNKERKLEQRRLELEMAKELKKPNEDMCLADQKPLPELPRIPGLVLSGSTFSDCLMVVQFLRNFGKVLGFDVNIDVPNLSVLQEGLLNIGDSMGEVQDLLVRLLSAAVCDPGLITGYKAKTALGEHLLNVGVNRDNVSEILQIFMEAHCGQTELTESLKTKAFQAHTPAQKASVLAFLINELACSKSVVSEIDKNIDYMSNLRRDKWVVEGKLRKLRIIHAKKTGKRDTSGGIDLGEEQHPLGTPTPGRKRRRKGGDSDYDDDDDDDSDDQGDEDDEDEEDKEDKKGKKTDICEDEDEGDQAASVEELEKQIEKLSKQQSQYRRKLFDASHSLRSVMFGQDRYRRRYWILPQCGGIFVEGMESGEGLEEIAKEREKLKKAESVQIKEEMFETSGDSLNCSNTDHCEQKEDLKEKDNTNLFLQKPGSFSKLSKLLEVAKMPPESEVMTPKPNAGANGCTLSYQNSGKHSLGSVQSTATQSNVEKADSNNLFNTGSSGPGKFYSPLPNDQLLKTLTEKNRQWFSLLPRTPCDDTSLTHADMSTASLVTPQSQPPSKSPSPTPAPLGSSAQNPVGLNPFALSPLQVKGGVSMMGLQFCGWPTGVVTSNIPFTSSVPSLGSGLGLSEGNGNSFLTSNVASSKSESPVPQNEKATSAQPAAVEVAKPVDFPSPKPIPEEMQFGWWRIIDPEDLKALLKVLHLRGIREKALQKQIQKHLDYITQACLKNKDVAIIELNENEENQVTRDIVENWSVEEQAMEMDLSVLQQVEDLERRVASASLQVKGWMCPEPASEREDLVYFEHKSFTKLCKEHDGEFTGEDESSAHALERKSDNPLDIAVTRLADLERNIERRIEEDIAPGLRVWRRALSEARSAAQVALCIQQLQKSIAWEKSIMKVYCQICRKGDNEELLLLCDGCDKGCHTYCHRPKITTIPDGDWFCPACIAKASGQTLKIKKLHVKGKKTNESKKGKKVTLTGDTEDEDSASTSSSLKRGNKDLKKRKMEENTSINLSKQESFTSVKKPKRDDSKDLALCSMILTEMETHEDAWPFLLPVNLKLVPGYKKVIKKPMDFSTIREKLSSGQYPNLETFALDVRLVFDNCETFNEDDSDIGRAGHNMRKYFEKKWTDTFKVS
row,SMILES,Potency
1,O=C1CC(=O)N(c2cccc(Cl)c2)C(=O)N1,"inconclusive: 89.1 µM [inhibitor, single point]"
2,CN1C(=O)C(=Cc2ccc(OCCN(C)c3ccccn3)cc2)C(=O)N(C)C1=O,inactive
3,O=[N+]([O-])c1ccccc1CNCCc1ccc(F)cc1,active: 50.1 µM
4,O=C1CC(c2cccnc2)=NN1c1ccc(Cl)cc1Cl,"inconclusive: 89.1 µM [inhibitor, partial curve]"
5,CC(C)Oc1ccc(C2C(C#N)=C(N)Oc3c2c(=O)oc2ccccc32)cc1 (stereo not given),inactive
6,Cc1ccc(C(O)P(=O)(OCCC(C)C)c2ccc(N(C)C)cc2)cc1 (stereo not given),"inconclusive: 79.4 µM [inhibitor, single point]"
7,COC(=O)CCC(=O)Nc1sc(Cc2ccccc2)c(C)c1C(N)=O,"inconclusive: 50.1 µM [inhibitor, partial curve]"
8,CC(=O)c1c(O)n(C2CCCCCC2)c(=O)[nH]c1=O,"inconclusive: 89.1 µM [inhibitor, single point]"
9,C[C@H]1COC2=C1C(=O)C(=O)c1c2ccc2c1CCCC2(C)C,active: 14.1 µM
10,Cc1ccc2[nH]c3c(c2c1)CN(C(=O)CN1CCSCC1)CC3,"inconclusive: 39.8 µM [inhibitor, partial curve]"
11,CC(C)(C)C(=O)c1cn(CC(=O)NCc2ccco2)c2ccccc12,"inconclusive: 79.4 µM [inhibitor, single point]"
12,Clc1cccc(Cl)c1CN1CCN(c2ccccc2)CC1,active: 35.5 µM
13,O=C(O)C1C2CCC(O2)C1C(=O)Nc1ccc(Cl)cc1 (stereo not given),"inconclusive: 79.4 µM [inhibitor, single point]"
14,COc1ccc(-c2nc(CSCC(=O)N3CCC4(CC3)OCCO4)c(C)o2)cc1OC,"inconclusive: 89.1 µM [inhibitor, single point]"
15,O=c1[nH]c(=S)n(Cc2ccco2)c(O)c1C=NCc1cccs1,active: 5.01 µM
16,O=c1[nH]c(=O)n(Cc2ccco2)c(O)c1C=NCc1ccco1,active: 56.2 µM
17,CN1C(=O)N(C)C(=O)C2(Cc3cc([N+](=O)[O-])ccc3N(C)C2)C1=O,inactive
18,COC(=O)C1=C(c2ccc(F)cc2OCc2ccccc2)C[C@@H]2CC[C@H]1N2C(=O)NCCc1ccc(F)cc1,inactive
19,NNc1n[nH]c(=S)n1N,"inconclusive: 35.5 µM [inhibitor, full curve]"
20,COCCNCCOc1ccc(C(C)(C)c2ccccc2)cc1,"inconclusive: 89.1 µM [inhibitor, single point]"
21,Cc1cc[n+](Cc2ccccc2)cc1,"inconclusive: 4.47 µM [inhibitor, single point]"
22,CCn1c(C)[n+](CC)c2ccc(S(=O)(=O)NC)cc21,"inconclusive: 89.1 µM [inhibitor, single point]"
23,COc1cc2c(cc1O)CC1c3c(cc(O)c(OC)c3-2)CCN1C (stereo not given),"inconclusive: 79.4 µM [inhibitor, partial curve]"
24,CN1CCN(Cc2ccc(Br)s2)CC1,"inconclusive: 70.8 µM [inhibitor, single point]"

row,SMILES,Potency
1,CCc1ccc(-n2c(O)c(/C=N/NC(=O)c3ccncc3)c(=O)[nH]c2=O)cc1,active: 56.2 µM
2,S=c1[nH]nc(-c2ccc3ccccc3n2)n1-c1ccc2c(c1)OCCO2,"inconclusive: 79.4 µM [inhibitor, single point]"
3,COc1cccc(CNC(=O)CSc2ccc(-c3ccco3)nn2)c1,"inconclusive: 70.8 µM [inhibitor, single point]"
4,COc1cccc(-n2c(CN3CCOCC3)nc3ccc([N+](=O)[O-])cc3c2=O)c1,inactive
5,COc1ccc(OC)c(N2C(=O)NC(=O)C(CCc3ccncc3)(CCc3ccncc3)C2=O)c1,inactive
6,CN(C)[C@@H]1C(=O)C(C(N)=O)=C(O)[C@@]2(O)C(=O)C3=C(O)c4c(O)cccc4[C@@](C)(O)C3[C@H](O)C12 (stereo not given in full),active: 2.82 µM and active: 6.31 µM
7,N#CC1=C(N)Oc2n[nH]c(-c3cccs3)c2C1c1ccco1 (stereo not given),"inconclusive: 79.4 µM [inhibitor, partial curve]"
8,COc1ccc(OC)c(NP(=O)(Oc2ccccc2)Oc2ccccc2)c1,"inconclusive: 44.7 µM [inhibitor, partial curve]"
9,COC(=O)C1C2c3ccccc3OC1(C)N=c1s/c(=C/c3cn(C)nc3C)c(=O)n12 (stereo not given),"inconclusive: 89.1 µM [inhibitor, single point]"
10,C=CCn1c(O)c(C(CC)=NCCN2CCOCC2)c(=O)[nH]c1=O,"inconclusive: 89.1 µM [inhibitor, single point]"
11,COc1ccc(N2C(=O)NC(=O)/C(=C\c3ccc([N+](=O)[O-])s3)C2=O)cc1,active: 31.6 µM
12,COc1ccc(CCNC(C)CCc2ccc(OC)cc2)cc1 (stereo not given),"inconclusive: 8.91 µM [inhibitor, single point]"
13,OC(c1ccccc1)(c1ccccc1)C1CCNCC1,"inconclusive: 79.4 µM [inhibitor, single point]"
14,COc1ccc(N2C(=O)/C(=C/c3cc(C)n(-c4ccc(C)cn4)c3C)C(=O)NC2=S)c(OC)c1,"inconclusive: 44.7 µM [inhibitor, partial curve]"
15,CC1=NOC2(C)Nc3ncnn3C(c3ccccc3)C12 (stereo not given),"inconclusive: 89.1 µM [inhibitor, single point]"
16,COc1ccc(CCn2c(O)c(/C=N/NC(=O)c3ccncc3)c(=O)[nH]c2=O)cc1OC,"inconclusive: 89.1 µM [inhibitor, single point]"
17,Cn1c(=O)c2[nH]cnc2n(C)c1=O,"inconclusive: 2.51 µM [inhibitor, full curve, poor fit]"
18,Cc1ccccc1N1C(=O)/C(=C/c2ccco2)C(=O)NC1=S,active: 1.12 µM
19,COc1cccc(-n2c(/C=C/c3ccc(O)c(O)c3)nc3ccccc3c2=O)c1,"inconclusive: 79.4 µM [inhibitor, single point]"
20,O=C1NC(=O)N(CCC2=CCCCC2)C(=O)/C1=C\c1cccs1,"inconclusive: 50.1 µM [inhibitor, partial curve]"
21,O=C(N/N=C/c1c(O)n(C2CC2)c(=S)[nH]c1=O)c1ccccc1,"inconclusive: 39.8 µM [inhibitor, single point]"
22,CCN(CC)c1ccc([N+](=O)[O-])c2cccnc12,active: 28.2 µM
23,CCCCN1C(=O)NC(=O)/C(=C/c2cnc(SC)nc2)C1=O,inactive
24,O=C(O)CN1C(=O)CN=C(c2ccccn2)c2cc(Cl)ccc21,active: 50.1 µM

row,SMILES,Potency
1,C/C=C(\C)C(=O)OC1C(C)=C2C(C1OC(=O)CCCCC)C(C)(OC(C)=O)CC(OC(=O)CCC)C1(O)C2OC(=O)C1(C)O (stereo not given),active: 56.2 µM
2,CN(C)CCNC(=O)c1cccn(Cc2cccc(C(F)(F)F)c2)c1=O,inactive
3,Cc1ccccc1-n1c(O)c(/C=N/N2CCOCC2)c(=O)[nH]c1=S,"inconclusive: 89.1 µM [inhibitor, single point]"
4,COc1ccc(CCNCc2ccccc2)cc1,active: 25.1 µM
5,O=C(O)/C=C\C(=O)Nc1ccc(Oc2ccc(Br)cc2)cc1,active: 50.1 µM
6,O=C(c1c[nH]cc1-c1ccccc1)c1cccc2ccccc12,active: 25.1 µM
7,Cc1cccc(-c2nc(CN3C(=O)CN=C(c4ccccc4)c4ccccc43)c(C)o2)c1,active: 22.4 µM
8,CCOC(=O)N(c1ccccc1)P1(=S)OCCO1,inactive
9,COc1ccc(C)cc1NC(=O)N(Cc1ccc2c(c1)OCO2)C1CCN(Cc2ccccc2)CC1,"inconclusive: 35.5 µM [inhibitor, partial curve]"
10,COc1ccc(CC(=O)Nc2ccc(C#N)c(Cl)c2)cc1S(=O)(=O)N1CCOCC1,"inconclusive: 70.8 µM [inhibitor, partial curve]"
11,O=C1NC(=O)N(Cc2ccco2)C(=O)/C1=C/c1cccn1CCOc1ccccc1Cl,active: 44.7 µM
12,O=c1[nH]c(O)c(/C=C2/C=CC(c3cc(Cl)ccc3Cl)=N2)c(=O)[nH]1,"inconclusive: 79.4 µM [inhibitor, partial curve]"
13,Cc1cccc(-n2c(O)c(/C=N/Nc3nc4c(c(=O)n(C)c(=O)n4C)n3C)c(=O)[nH]c2=S)c1,"inconclusive: 89.1 µM [inhibitor, single point]"
14,CCOc1ccc(N2C(=O)NC(=O)/C(=C\c3cc(OC)c(OC)cc3[N+](=O)[O-])C2=O)cc1,"inconclusive: 79.4 µM [inhibitor, single point]"
15,Cc1ccc(Cl)cc1NC(=O)N(Cc1ccc2c(c1)OCO2)C1CCN(Cc2ccccc2)CC1,"inconclusive: 39.8 µM [inhibitor, full curve]"
16,CN(C)c1ccc(/C=C/C=C2/C(=O)NC(=O)N(c3ccccc3)C2=O)cc1,active: 12.6 µM
17,CCN(CC)C(=O)c1ccc2c(c1)C1C=CCC1C(C(=O)O)N2 (stereo not given),active: 25.1 µM
18,COC(=O)C1=C(c2c(C)noc2C)C[C@@H]2CC[C@H]1N2C(=O)NCc1ccc2c(c1)OCO2,inactive
19,Cc1cc(/C=C2\C(=O)NC(=O)N(c3ccc(Cl)cc3)C2=O)c(C)n1-c1sc2c(c1C#N)CCCC2,"inconclusive: 44.7 µM [inhibitor, partial curve]"
20,NC1CCCCC1N=Cc1c(O)n(CCc2ccc(F)cc2)c(=O)[nH]c1=O (stereo not given),active: 44.7 µM
21,CCOc1ccc(-n2c(-c3ccoc3)nc3ccccc3c2=O)cc1,inactive
22,CCOC(=O)c1c(C)[nH]c(C)c1S(=O)(=O)N1CCC(C(=O)N2CCN(c3ccc(Cl)cc3)CC2)CC1,"inconclusive: 50.1 µM [inhibitor, partial curve]"
